According to PubChem BioAssay AID686979 (National Center for Advancing Translational Sciences (NCATS), 2013):
Screen size: about 420,000 compounds; about 50,000 (12%) were called active. Inconclusive means that the source gave no clear call. Such entries were picked first, then a sample of the others. Calls come from the whole dose curve; as a rule, active = well fitted inhibition curve with a large enough effect; inconclusive = small, poorly fitted or top-dose-only effect; inactive = flat fitted curve, though single readings scatter. Potencies of inconclusive entries are left out as doubtful fits.

test: qHTS for Inhibitors of human tyrosyl-DNA phosphodiesterase 1 (TDP1): qHTS in cells in presence of CPT; conditions: chicken DT40 Tdp1-/-;hTDP1 cells + 20 nM CPT, ATP luminescence, 48 h; activity change, negative = growth inhibition: at 46.2 µM (top of the series) unless noted; note: nearly all actives have a fitted effect of over 55% in size
Method in brief: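 Chicken DT40 Tdp1-/- cells stably complemented with human TDP1 were seeded at 400 cells/well in medium containing 20 nM camptothecin, exposed to pin-transferred compounds, and grown at 37 °C for at least 48 hr. Viability was read as ATP luminescence.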
% is set by controls: 0 for no effect and ±100 for the full control effect; potency is the fitted concentration of half-maximal effect; tags give direction and shape of the fitted curve.

SMILES	Potency	activity change, negative = growth inhibition
O=C1CCN(Cc2ccc(Br)cc2)CCN1[C@H](CO)Cc1ccccc1	active: 20 µM	–
Clc1cccc(N2CCN(c3ncnc4c3nc3n4CCCC3)CC2)c1	active: 16.4 µM	–
COc1ccc(NC(=O)N(C)C[C@H]2Oc3ncc(C#C[C@@H](C)O)cc3C(=O)N([C@H](C)CO)C[C@H]2C)cc1	inactive	–
COC(=O)c1cc2oc3ccccc3c2n1CC(=O)Nc1cc(OC)cc(OC)c1	inactive	–
C=CCn1c(O)c(N=NC(=S)Nc2ccccc2C)c2cc(S(=O)(=O)N3CCOCC3)ccc21	active: 3.26 µM	–
CCCOC(=O)C1=C(C)NC(=O)NC1c1cccc2ccccc12 (stereo unspecified)	inconclusive [inhibitor, single point]	–
CC(=O)Nc1ccc(C)cc1-c1nc2ccccc2n(CC(=O)c2ccc(Cl)cc2)c1=O	inactive	–
CCCCn1c(N)c(N(CCOC)C(=O)c2oc3ccc(Br)cc3c2C)c(=O)[nH]c1=O	inactive	–
Cc1ccc(F)c([C@H]2[C@@H]3C=CCC[C@@]3(C)C(=O)N2Cc2ccccc2)c1	inconclusive [inhibitor, single point]	–
COc1ccc(C(=O)NCC(c2cccs2)S(=O)(=O)c2ccc(F)c(C)c2)cc1 (stereo unspecified)	inconclusive [inhibitor, single point]	–
COc1ccc(NS(=O)(=O)c2cccc(C(=O)NNC(=O)c3cc(C)oc3C)c2)cc1	inactive	–
CO/C([O-])=N/c1c[n+](-c2ccc(Cl)cc2)no1	inconclusive [inhibitor, partial curve]	–
O=C(COc1ccc2c(-c3ccccc3)cc(=O)oc2c1)NCc1ccccn1	inconclusive [inhibitor, single point]	–
COC(=O)c1ccc(NS(=O)(=O)c2cc3c4c(c2)C(C)C(=O)N4CCC3)cc1 (stereo unspecified)	inactive	–
COc1cccc(-c2nc(Cc3ccc(OC)c(OC)c3)no2)c1	–	inconclusive: -33% [inhibitor]
CCOc1ccc(-c2cc(C(=O)N/N=C/c3cccnc3)c3ccccc3n2)cc1	active: 2.31 µM	–
Cc1ccc(CNC(=O)NC2COc3ccccc3C2)cc1 (stereo unspecified)	inactive	–
CCN1C(=O)NC2=C(C(=O)c3ccccc32)C1c1ccccc1F (stereo unspecified)	inconclusive [inhibitor, single point]	–
CC(C)(C)c1ccc(C(=O)NC(=S)Nc2sc3c(c2C#N)CCC3)cc1	inconclusive [inhibitor, single point]	–
CCN(CC)S(=O)(=O)c1ccc(S(=O)(=O)N2CCCC(C(=O)NC3CC3)C2)cc1 (stereo unspecified)	active: 1.3 µM	–
COc1ccc(OC)c(CNC(=O)c2ccccc2NC(=O)c2nsc3ccccc23)c1	inconclusive [inhibitor, single point]	–
